# Test results from PubChem BioAssay AID485364 (National Center for Advancing Translational Sciences (NCATS), 2010).
# Screen size: about 360,000 compounds; about 11,000 (3.1%) were called active. Inconclusive results, whose numbers are uncertain, are shown with a selection of clear calls. The call rests on the fitted dose curve; in most records, active means well fitted inhibition curve with a large enough effect; inconclusive means small, poorly fitted or top-dose-only effect; inactive means no such curve, though single readings can be large or run the other way. No potency is given beside an inconclusive call; the fits are too rough.
# Target: Schistosoma mansoni thioredoxin glutathione reductase (TGR) (UniProt Q962Y6)
# Experiment: qHTS Assay for the Inhibitors of Schistosoma Mansoni Peroxiredoxins; further: nearly all actives have a fitted effect of over 60% in size
# Settings: purified TGR, DTNB reduction, TNB absorbance 405 nm; series mostly up to 114 µM
# Summary of the method: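 TGR 20 nM + NADPH 100 uM (dispensed conc.), cpd preinc 15 min RT; start with NADPH (500 uM addition) then DTNB (15 mM addition). Kinetic TNB absorbance, 405 nm filter. Four-parameter Hill fit across titration.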
# Potency means the concentration at half of the fitted maximal effect; tags describe the fitted curve by direction and shape.
row,SMILES,Potency
1,c1ccc(-c2nnc(SCc3nc4ccccc4[nH]3)n2Cc2ccco2)nc1,"inconclusive [inhibitor, single point]"
2,COc1ccc(NC(=O)Cc2c(F)c(F)c(F)c(F)c2F)cc1OC,"inconclusive [inhibitor, single point]"
3,COc1ccc(NC2CCCN(C(=O)c3ccc4[nH]c(C)c(C)c4c3)C2)cc1OC (configuration not stated),"inconclusive [inhibitor, partial curve]"
4,Cn1cnc(S(=O)(=O)N2CCC(C(=O)N3CCN(c4ccc(Cl)cc4)CC3)CC2)c1,inactive
5,CC(=O)Nc1ccc(S(=O)(=O)N2CCN(C(=O)c3ncoc3-c3cccc(C)c3)CC2)cc1,"inconclusive [inhibitor, single point]"
6,Cc1ccc(CNC(=O)CN2C(=O)C3(SCC(=O)N3c3cc(C)cc(C)c3)c3ccccc32)cc1 (configuration not stated),inactive
7,Cc1ccccc1-n1ncc2c(SCC(=O)N3c4ccccc4CC3C)ncnc21 (configuration not stated),inactive
8,Cc1cccc(C2=NCC(=O)N(CC(=O)NCc3ccco3)c3sc4c(c32)CCCC4)c1,active: 17.8 µM
9,Cc1ccsc1-c1nc(CSCC(=O)N2CCN(c3ccccc3)CC2)c(C)o1,"inconclusive [inhibitor, partial curve]"
10,CCOC(=O)c1c(C)[nH]c(C)c1C(=O)CSc1nnnn1-c1ccccc1,"inconclusive [inhibitor, single point]"
11,NC(=O)C1CCN(CCS(=O)(=O)c2ccc(Cl)cc2)CC1,active: 44.7 µM
12,CCOC(=O)c1ccc(N2CSC3=C(C#N)C(c4ccc(OC)cc4OC)CC(=O)N3C2)cc1 (configuration not stated),"inconclusive [inhibitor, partial curve, poor fit]"
13,N#Cc1c(NC(=O)c2ccc(Br)o2)n(-c2ccccc2)c2nc3ccccc3nc12,"inconclusive [inhibitor, partial curve]"
14,O=C1C2C3C=CC(CNS(=O)(=O)c4ccccc4)(O3)C2C(=O)N1c1ccc(Cl)cc1 (configuration not stated),active: 3.98 µM
15,COc1ccc(CCN(C)Cc2c(O)ccc3ccccc23)cc1OC,active: 1.41 µM
16,CC(C)c1onc(C(=O)NCCc2ccccc2)c1[N+](=O)[O-],active: 44.7 µM
17,CCC(=O)NC(=S)Nc1c(C)cc(Br)cc1C,"inconclusive [inhibitor, full curve]"
18,CCOc1ccc(N2C(=O)CC(NCCc3c[nH]c4ccccc34)C2=O)cc1 (configuration not stated),"inconclusive [inhibitor, partial curve]"
19,Cc1ccccc1C(=O)Nc1nnc(SCC(=O)NCc2ccco2)s1,"inconclusive [inhibitor, partial curve, poor fit]"
20,CCn1c(SCC(=O)NCc2cccs2)nnc1-c1ccncc1,"inconclusive [inhibitor, partial curve, poor fit]"
21,O=C(O)C1=CC[C@@H](c2ccc(Cl)cc2)N(S(=O)(=O)c2ccc(Cl)cc2)C1,"inconclusive [inhibitor, partial curve]"
22,O=C1Nc2ccccc2/C1=N\N=C\C1=C(N2CCOCC2)C(=C\c2ccccc2)/CC1,active: 44.7 µM
23,CC1=NC(Nc2nc(C)c3ccccc3n2)=NC(C)(C)C1,active: 25.1 µM
24,Cn1c(=O)[nH]c(=O)c2c1nc(N1CCNCC1)n2Cc1ccccc1,"inconclusive [inhibitor, partial curve]"

row,SMILES,Potency
1,COc1ccc2c(c1)c1c(c(=O)n(-c3ccccc3C)c(=O)n1CC(=O)N1CCCC1)n2C,inactive
2,COc1ccc(NC(=S)Nc2ccccn2)c(OC)c1,"inconclusive [inhibitor, full curve, poor fit]"
3,CCOc1ccc(CNC(=O)C2CCN(S(=O)(=O)c3cn(C)cn3)CC2)cc1OC,inactive
4,Cc1ccc(CNC(=O)c2cc(C3CC3)nc3c2cnn3C(C)C)cc1,inactive
5,OC(CNCC1CCCO1)COc1ccc(OCC(O)CNCC2CCCO2)cc1 (configuration not stated),"inconclusive [inhibitor, single point]"
6,Cc1cccc(C(=O)OCC(=O)NC(=O)c2ccccc2)c1O,active: 50.1 µM
7,COC(=O)c1cc2oc(C)cc2n1CC(=O)Nc1cc(Cl)ccc1OC,inactive
8,COc1ccc(CN2CCNC(=O)C2CC(=O)N(C)CC2CCOCC2)c(F)c1 (configuration not stated),"inconclusive [inhibitor, partial curve]"
9,CCOC(=O)C(NC(=O)c1cccc(Cl)c1)(Nc1sc2c(c1C(N)=O)CCC2)C(F)(F)F (configuration not stated),active: 39.8 µM
10,CCOC(=O)C(C)n1nc(C)c2sc3ccccc3c2c1=O (configuration not stated),active: 39.8 µM
11,COc1ccc(C(=O)Oc2cc(-c3ccc4c(c3)OCO4)cc(=O)c3c(C)oc(C)c23)cc1,"inconclusive [inhibitor, partial curve]"
12,CC1CN(c2snnc2C=C2C(=O)OC(C)(C)OC2=O)CC(C)O1 (configuration not stated),"inconclusive [inhibitor, partial curve]"
13,COc1ccc(OC)c(-n2c(O)c(C=Nc3c(C)n(C)n(-c4ccccc4)c3=O)c(=O)[nH]c2=S)c1,"inconclusive [inhibitor, partial curve]"
14,N#CCn1nnc(-c2ccc3c(c2)OCO3)n1,inactive
15,Cc1ccc2[nH]c3c(=O)n(CC(=O)NC(C)C)ncc3c2c1,inactive
16,COc1ccc(-c2[nH]c3ccccc3c2SCCNC(=O)c2ccc(S(=O)(=O)N(C)C)cc2)cc1,inactive
17,COc1ccc(-n2c(-c3ccc(F)cc3)cnc2SCC(=O)NCc2ccco2)cc1,inactive
18,CCOC(=O)C1CCN(C(=O)c2ccccc2NS(=O)(=O)c2ccc(F)cc2)CC1,inactive
19,CCCN1C(=O)C2(c3ccccc31)c1c(oc3ccc(C)cc3c1=O)C(=O)N2CCOC (configuration not stated),inactive
20,COC(=O)CN1C(=O)[C@H]2[C@@H](c3ccc(C)o3)N3C(=O)CN(Cc4ccccc4)C(=O)[C@@]3(C)[C@H]2C1=O,active: 22.4 µM
21,COc1ccc(N=Nc2cc(C)c(O)c(CN3CCCCC3)c2)cc1,"inconclusive [inhibitor, partial curve]"
22,COc1ccc(N2C(=O)/C(=C\c3ccco3)N=C2SCC(=O)N(C(C)C)C(C)C)cc1Cl,"inconclusive [inhibitor, partial curve]"
23,O=C(NCc1nnc(SCc2ccc(C(F)(F)F)cc2)n1-c1ccccc1)C12CC3CC(CC(C3)C1)C2,inactive
24,COc1ccc(CCNc2ccc(C(CC(N)=O)NC(=O)c3ccc(Br)cc3)cc2[N+](=O)[O-])cc1 (configuration not stated),inactive

row,SMILES,Potency
1,CCC(Sc1nc2n[nH]c(C)c2c(=N)n1-c1ccc(C)c(Cl)c1)C(=O)N1CCOCC1 (configuration not stated),inactive
2,CCN(C(=O)COC(=O)c1cnc(C)cn1)C1CCS(=O)(=O)C1 (configuration not stated),inactive
3,COC(=O)CCCC1=CC2=C(c3ccccc3)C(=O)C(C)(OC(=O)C3CCCC3)C(=O)C2=CN1c1ccc(OC)cc1 (configuration not stated),"inconclusive [inhibitor, partial curve]"
4,O=C(CSc1nnc(NC(=O)C2CC(=O)N(c3ccc(F)cc3)C2)s1)NCc1ccco1 (configuration not stated),"inconclusive [inhibitor, partial curve]"
5,Cc1cc(-c2ccc(/C=N/n3cnnc3)o2)c(C)c([N+](=O)[O-])c1,"inconclusive [inhibitor, partial curve]"
6,Cc1cc(Cl)c2oc(C(=O)N3CCN(C(=O)c4ccco4)CC3)c(C)c2c1,"inconclusive [inhibitor, partial curve]"
7,CCNC(=S)N/N=C1\CCCCc2ccccc21,"inconclusive [inhibitor, full curve, poor fit]"
8,CCOCCn1c(N2CCCC2)nc2c1c(=O)[nH]c(=O)n2C,"inconclusive [inhibitor, partial curve]"
9,CCC(CC)COC(=O)C(C#N)c1nc2ccccc2nc1N1CCOCC1 (configuration not stated),inactive
10,CC(C)CC(=O)NC(=S)Nc1ccc(NC(=O)c2cccs2)cc1,"inconclusive [inhibitor, full curve]"
11,COC(=O)/C=c1\sc2ncnn2c1=O,active: 1.41 µM
12,COC(=O)Nc1nnc(-c2ccccc2OC)s1,inactive
13,COc1cc(CN2CCCCC2)ccc1OCc1ccccc1,inactive
14,Cc1ccc(-n2cccn2)c(CN2CCC(CO)(CCc3ccccc3)CC2)c1,inactive
15,O=C(CCCn1c(=O)oc2ccccc21)Nc1ccccc1,inactive
16,COC(=O)c1ccccc1NC(=O)Cn1c(=O)n(CCCC(=O)NCCc2ccc(OC)c(OC)c2)c(=O)c2ccccc21,"inconclusive [inhibitor, single point]"
17,O=C1CC(NNc2ccccc2)C(=O)N1c1cccc(Cl)c1 (configuration not stated),"inconclusive [inhibitor, full curve]"
18,CCOC(=O)CSC1=NC(=O)/C(=C\c2ccc(Cl)cc2)S1,active: 3.55 µM
19,CCCc1nc2sc3c(SCC(=O)NCc4ccco4)ncnc3c2c2c1CCC2,active: 15.8 µM
20,Cc1cc(CNC(=O)CC2C(=O)NCCN2Cc2ccccc2)nn1C (configuration not stated),"inconclusive [inhibitor, partial curve]"
21,COc1ccc(C(C(=O)NC2CCCC2)N(Cc2cccnc2)C(=O)c2snc(C(N)=O)c2N)cc1 (configuration not stated),inactive
22,Cc1cc(C(=O)NCC(c2cccs2)N2CCOCC2)ccc1[N+](=O)[O-] (configuration not stated),inactive
23,COC(=O)C(C(C)C)N1CCc2c(C)nc3c(C#N)cnn3c21 (configuration not stated),"inconclusive [inhibitor, partial curve]"
24,CC(=O)C1=C(c2ccc(Cl)c(Cl)c2)N(C(C)=O)n2c(C)nnc2S1,"inconclusive [inhibitor, full curve]"
